Data taken from PubChem BioAssay (NCATS).
This list was built around the results that the source calls inconclusive (neither active nor inactive); the mix of calls is not that of the screen. For some assays here: Where the call is inconclusive, the potency comes from a doubtful curve fit. For some assays here: A note “side channel” means that the fit belongs to a control or component signal, not to the main read-out. Calls of active or inactive are those of the source. Unless noted, calls follow the shape of the dose curve; as a rule, active = well fitted curve in either direction with a large enough effect (not every such curve was filed as active); inconclusive = small, poorly fitted or top-dose-only effect, or another doubt; inactive = flat fitted curve, though single readings scatter.

Experiments:
[1] = AP1 Signaling Pathway (AID 357); conditions: ME-180 AP-1-bla reporter, EGF-induced, beta-lactamase ratio, 5 h; at 17.2 µM (top of the series) unless noted;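 also: ME-180 reporter cells stimulated with EGF at its EC50 level; top concentration of the series differs between compounds; % is scaled to controls: 0 for no effect and ±100 for the full control effect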
In short: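 AP-1-bla ME-180 cells, Opti-MEM + 0.5% dialyzed FBS, plated overnight 37 °C. Cpd titration + EC50 EGF, 5 h 37 °C. CCF4 2.5 h RT; ex 405, em 460/530 ratio → %activity, AC50.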

[2] = Stat Signaling Pathway (AID 446); conditions: ME-180 SIE beta-lactamase reporter, IL-6 stimulated, 5 h; at 7.69 µM (top of the series) unless noted;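 also: ME-180 cervical cancer cells given 40 pM IL-6 alongside compound; SIE-controlled beta-lactamase reporter measured as 460/530 nm FRET emission ratio; top concentration of the series differs between compounds; % is scaled to controls: 0 for no effect and ±100 for the full control effect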
In short: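 IL-6/STAT signaling read in ME-180 cells via an SIE beta-lactamase reporter. Stimulus was 40 pM IL-6 (its AC50) for 5 hrs, so both activation and inhibition register.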

[3] = qHTS Assay for Identification of Small Molecule Agonists for Hypoxia Response Element Signaling Pathway (AID 914; active = well fitted activation curve with a large enough effect in the signal ratio, with a control signal flat, not every such curve was filed as active; inconclusive = small, poorly fitted or top-dose-only effect, or effect the other way, or a change in a side signal; the % refers to the signal ratio; also: potency is read from the fitted curve at half-maximal effect; as to activation: top concentration of the series differs between compounds; % of control where 0% means no effect); conditions: ME-180 HRE-bla reporter, beta-lactamase ratio, CoCl2, 17 h; activation: active compounds read high
In short: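 ME-180 cells carrying an HRE-driven beta-lactamase reporter were treated with compounds in a titration series plus an EC50 level of CoCl2 for 17 h at 37 degrees Celsius; CCF4 readout as the 460nm/530nm ratio gave AC50 values.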

[4] = biological target: Cytochrome P450 2C9 (Homo sapiens) (UniProt P11712); test: qHTS Assay for Inhibitors and Substrates of Cytochrome P450 2C9 (AID 883; active = well fitted curve in the direction sought with a large enough effect; inconclusive = small, poorly fitted or top-dose-only effect, or another doubt; inactive = no such curve, though single readings can be large; an effect the other way counts as inactive or inconclusive; also: % is scaled to controls: 0 for no effect and ±100 for the full control effect; nearly all actives have a fitted effect of over 60% in size); conditions: recombinant CYP2C9, luciferin-H luminescence, 60 min; activity change, negative = inhibition: at 57.1 µM (top of the series)
In short: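 Human CYP2C9 (10nM) hydroxylated Luciferin-H (100uM, at its KM) to luciferin in 25mM KPO4. Compound was preincubated 10 min at 37C, then NADPH regeneration started a 60 min reaction at 37C. Luminescence was read after detection reagent, normalized to 57uM sulphaphenazole.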

[5] = biological target: Glucocorticoid receptor (Homo sapiens) (UniProt P04150); test: GR-GFP Redistribution (AID 450;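 active = compounds whose dose series gives a full or clear partial fitted curve of increased nuclear translocation; inconclusive = weak partial curve or effect only at the top dose; inactive = no dose-dependent translocation response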; also: potency is read from the fitted curve at half-maximal effect); conditions: U2OS GR-GFP nuclear translocation, laser cytometry, 2 h
[6] = biological target: Cytochrome P450 3A4 (Homo sapiens) (UniProt P08684); test: qHTS Assay for Inhibitors and Substrates of Cytochrome P450 3A4 (AID 884; active = well fitted curve in the direction sought with a large enough effect; inconclusive = small, poorly fitted or top-dose-only effect, or another doubt; inactive = no such curve, though single readings can be large; an effect the other way counts as inactive or inconclusive; also: potency is read from the fitted curve at half-maximal effect; nearly all actives have a fitted effect of over 50% in size)
In short: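 20 nM human CYP3A4 with 25 uM Luciferin-PPXE (at KM) in 200 mM KPO4, preincubated 10 min with compound; NADPH regeneration started a 60 min RT reaction. Luciferin detected by luminescence, normalized to 57 uM ketoconazole as full inhibition.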

[7] = biological target: Mitogen-activated protein kinase 10 (Mus musculus) (UniProt Q61831); test: JNK3 AlphaScreen Assay (AID 530); conditions: JNK3 lysate, c-Jun phosphorylation; activity change, negative = inhibition: at 57.1 µM (top of the series);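 also: kinase came from lysate of stimulated human HepG2 cells; signal reports phosphorylation of biotinylated GST-cJun 1-79 at Ser73 with 10 µM ATP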; also: potency is read from the fitted curve at half-maximal effect; as to activity change, negative = inhibition: % is scaled to controls: 0 for no effect and ±100 for the full control effect
In short: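 Inhibitors reduce antibody binding to phosphorylated biotin-cJun, lowering AlphaScreen luminescence. Lysates from HepG2 cells pre-activated by IL-1beta plus TNF-alpha supplied JNK3; compounds were titrated.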

[8] = biological target: Guanine nucleotide-binding protein G(i) subunit alpha-1 (Homo sapiens) (UniProt P63096); test: qHTS Assay for Inhibitors of RGS12 GoLoco Motif Activity (Green Fluorophore) (AID 879; active = well fitted curve in the direction sought with a large enough effect; inconclusive = small, poorly fitted or top-dose-only effect, or another doubt; inactive = no such curve, though single readings can be large; an effect the other way counts as inactive or inconclusive; also: potency is read from the fitted curve at half-maximal effect)
In short: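 Fluorescence polarization assay: 50 nM Gαi1 with 10 nM FITC-labeled RGS12 GoLoco peptide in 10 mM Tris pH 7.5, 150 mM NaCl, 0.1 mM GDP, 0.05% NP40, 10 min at room temperature with compound.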

[9] = qHTS Assay for Identification of Small Molecule Agonists for Thrombopoietin (TPO) Signaling Pathway (AID 917; active = well fitted curve in the direction sought with a large enough effect; inconclusive = small, poorly fitted or top-dose-only effect, or another doubt; inactive = no such curve, though single readings can be large; an effect the other way counts as inactive or inconclusive; also: potency is read from the fitted curve at half-maximal effect); conditions: TPO signaling pathway reporter cells, agonist qHTS, stimulated with TPO at its EC50; activity, positive = activation: at 38.5 µM (top of the series)
In short: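 We measured Glycoprotein IIb promoter–luciferase output in IL-3-starved Ba/F3 murine cells expressing the human TPO receptor after 24 hrs at 37 C with compounds and 26 pM TPO.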

[10] = biological target: Muscarinic acetylcholine receptor M1 (Rattus norvegicus) (UniProt P08482); test: qHTS Assay for Antagonists of Acetylcholine Muscarinic M1 Receptor: Kinetic Measurement of Intracellular Calcium Response (AID 943; active = well fitted curve in the direction sought with a large enough effect; inconclusive = small, poorly fitted or top-dose-only effect, or another doubt; inactive = no such curve, though single readings can be large; an effect the other way counts as inactive or inconclusive; also: potency is read from the fitted curve at half-maximal effect; nearly all actives have a fitted effect of over 75% in size)
In short: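 CHO cells expressing rat M1 receptor, Fluo-4 loaded, preincubated 10 min with compound, then stimulated with EC80 carbachol (100 nM final). Kinetic calcium fluorescence over 4 min; response taken as peak over basal signal.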

[11] = biological target: Muscarinic acetylcholine receptor M1 (Rattus norvegicus) (UniProt P08482); test: qHTS Assay for Antagonists of Acetylcholine Muscarinic M1 Receptor: Measurement of IP-One Response (AID 944; active = well fitted curve in the direction sought with a large enough effect; inconclusive = small, poorly fitted or top-dose-only effect, or another doubt; inactive = no such curve, though single readings can be large; an effect the other way counts as inactive or inconclusive; also: potency is read from the fitted curve at half-maximal effect; nearly all actives have a fitted effect of over 75% in size)
[12] = biological target: Pyruvate kinase (Leishmania mexicana) (UniProt Q27686); test: qHTS Validation Assay for Inhibitors of Leishmania Mexicana Pyruvate Kinase (AID 945; active = well fitted curve in the direction sought with a large enough effect; inconclusive = small, poorly fitted or top-dose-only effect, or another doubt; inactive = no such curve, though single readings can be large; an effect the other way counts as inactive or inconclusive; also: potency is read from the fitted curve at half-maximal effect)
In short: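 LmPYK E451W 0.2 nM; 0.5 mM PEP, 0.1 mM ADP, 7 mM MgCl2, 50 mM KCl, imidazole pH 7.2, 0.01% Tween 20, 0.05% BSA; 1 h RT; PKLight luminescence; DMSO-normalized.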

[13] = biological target: Pyruvate kinase PKM (Homo sapiens) (UniProt P14618); test: qHTS Assay for Inhibitors of Human Muscle Pyruvate Kinase (AID 958; active = well fitted curve in the direction sought with a large enough effect; inconclusive = small, poorly fitted or top-dose-only effect, or another doubt; inactive = no such curve, though single readings can be large; an effect the other way counts as inactive or inconclusive)
In short: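 Luminescence from a luciferase ATP-detection/stop reagent reported PKM2 activity. Reactions contained 0.1 nM purified human enzyme, 0.5 mM PEP, 0.1 mM ADP and 7 mM MgCl2 at pH 7.2, run 1 h at RT.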

[14] = biological target: Cytochrome P450 2D6 (Homo sapiens) (UniProt P10635); test: qHTS Assay for Inhibitors and Substrates of Cytochrome P450 2D6 (AID 891; active = well fitted curve in the direction sought with a large enough effect; inconclusive = small, poorly fitted or top-dose-only effect, or another doubt; inactive = no such curve, though single readings can be large; an effect the other way counts as inactive or inconclusive;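 also: luciferin methyl ether substrate demethylated by CYP2D6 with NADPH regeneration; potency is read from the fitted curve at half-maximal effect; nearly all actives have a fitted effect of over 60% in size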); conditions: recombinant CYP2D6, luciferin-ME EGE luminescence; activity change, negative = inhibition: at 57.1 µM (top of the series)
In short: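 Human CYP2D6 (5 nM) with 30 uM Luciferin-ME EGE (at Km) in 100 mM KPO4, compound preincubated 10 min, then NADPH regeneration system for 60 min at room temperature. Luciferin read by luminescence; normalized to 1.43 uM quinidine.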

[15] = qHTS Assay for Identification of Small Molecule Antagonists for NFkB Signaling Pathway (AID 895; active = well fitted inhibition curve with a large enough effect in the signal ratio, with a control signal flat, not every such curve was filed as active; inconclusive = small, poorly fitted or top-dose-only effect, or effect the other way, or a change in a side signal; the % refers to the signal ratio; also: potency is read from the fitted curve at half-maximal effect); conditions: NFkB beta-lactamase reporter cells, FRET ratio 460/530, stimulated with 10 pM TNF alpha; activity change, negative = inhibition: at 38.3 µM (top of the series)
In short: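 NFkB-bla ME-180 cervical carcinoma cells with beta-lactamase reporter under NFkB response element; compounds added, then TNF alpha at 10 pM final (EC50), 5 h at 37 C. LiveBLAzer substrate 2 h, room temperature; emission 460/530 nm at 405 nm excitation.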

[16] = qHTS Assay for Identification of Small Molecule Antagonists for Thrombopoietin (TPO) Signaling Pathway (AID 918; active = well fitted curve in the direction sought with a large enough effect; inconclusive = small, poorly fitted or top-dose-only effect, or another doubt; inactive = no such curve, though single readings can be large; an effect the other way counts as inactive or inconclusive; also: nearly all actives have a fitted effect of over 60% in size); conditions: TPO-dependent cell signaling reporter, antagonist mode; activity change, negative = inhibition: at 38.5 µM (top of the series)
In short: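 Murine Ba/F3 cells expressing human TPO receptor and a Glycoprotein IIb promoter-luciferase reporter, IL-3-starved overnight, treated with compound plus TPO at EC50 (26 pM final). After 24 h at 37 C, luminescence read to detect inhibitors.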
Tags tell the direction and shape of the fitted curve or compound fluorescence and quenching.

UniProt P08482, sequence (P08482 whole entry, looked up): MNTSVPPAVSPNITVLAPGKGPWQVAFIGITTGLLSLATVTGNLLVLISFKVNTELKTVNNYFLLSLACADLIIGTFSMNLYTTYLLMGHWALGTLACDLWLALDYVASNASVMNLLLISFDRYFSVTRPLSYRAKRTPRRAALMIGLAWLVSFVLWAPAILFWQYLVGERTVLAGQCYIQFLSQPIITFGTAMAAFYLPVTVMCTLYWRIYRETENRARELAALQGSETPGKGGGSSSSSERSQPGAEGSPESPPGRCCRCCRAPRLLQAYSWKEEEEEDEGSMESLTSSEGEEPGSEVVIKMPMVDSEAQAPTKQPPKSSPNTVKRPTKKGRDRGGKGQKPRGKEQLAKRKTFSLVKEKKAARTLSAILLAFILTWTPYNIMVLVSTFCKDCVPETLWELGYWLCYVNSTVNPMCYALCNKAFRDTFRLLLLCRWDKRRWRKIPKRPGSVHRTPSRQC
UniProt P10635, sequence (P10635 whole entry, looked up): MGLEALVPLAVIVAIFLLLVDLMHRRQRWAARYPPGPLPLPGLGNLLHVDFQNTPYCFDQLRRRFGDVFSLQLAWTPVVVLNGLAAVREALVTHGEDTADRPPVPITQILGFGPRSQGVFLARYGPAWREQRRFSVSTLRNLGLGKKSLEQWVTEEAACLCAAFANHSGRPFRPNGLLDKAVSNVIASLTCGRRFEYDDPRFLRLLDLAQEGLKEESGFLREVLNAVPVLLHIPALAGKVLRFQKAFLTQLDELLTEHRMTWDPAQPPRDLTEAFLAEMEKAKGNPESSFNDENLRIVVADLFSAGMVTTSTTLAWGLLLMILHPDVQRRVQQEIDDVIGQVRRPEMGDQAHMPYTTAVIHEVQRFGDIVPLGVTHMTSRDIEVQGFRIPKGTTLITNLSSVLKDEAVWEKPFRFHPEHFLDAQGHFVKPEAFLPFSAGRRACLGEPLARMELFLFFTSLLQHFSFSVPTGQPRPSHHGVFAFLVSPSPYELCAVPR
UniProt P04150, sequence (P04150 whole entry, looked up): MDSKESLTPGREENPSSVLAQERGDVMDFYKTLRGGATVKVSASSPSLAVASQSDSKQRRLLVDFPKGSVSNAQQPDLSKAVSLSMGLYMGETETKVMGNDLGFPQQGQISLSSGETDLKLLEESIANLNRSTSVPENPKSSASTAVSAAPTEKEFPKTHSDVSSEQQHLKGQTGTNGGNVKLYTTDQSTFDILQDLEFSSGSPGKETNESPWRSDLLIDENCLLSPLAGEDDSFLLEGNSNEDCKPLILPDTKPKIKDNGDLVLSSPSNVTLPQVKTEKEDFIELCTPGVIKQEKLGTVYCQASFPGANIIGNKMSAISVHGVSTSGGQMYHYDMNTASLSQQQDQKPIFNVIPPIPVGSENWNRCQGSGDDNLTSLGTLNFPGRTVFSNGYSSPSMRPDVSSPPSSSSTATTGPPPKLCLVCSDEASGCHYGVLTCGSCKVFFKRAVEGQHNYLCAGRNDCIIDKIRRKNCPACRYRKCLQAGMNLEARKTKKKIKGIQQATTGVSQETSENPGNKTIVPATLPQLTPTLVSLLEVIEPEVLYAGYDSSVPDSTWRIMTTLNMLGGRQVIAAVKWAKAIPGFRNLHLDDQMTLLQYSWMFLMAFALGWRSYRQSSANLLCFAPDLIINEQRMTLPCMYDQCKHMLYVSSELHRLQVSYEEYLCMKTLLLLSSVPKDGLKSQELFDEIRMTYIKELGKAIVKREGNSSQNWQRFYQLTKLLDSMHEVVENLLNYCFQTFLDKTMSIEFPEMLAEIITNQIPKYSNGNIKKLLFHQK
UniProt Q27686, sequence (Q27686 2-499 E452W): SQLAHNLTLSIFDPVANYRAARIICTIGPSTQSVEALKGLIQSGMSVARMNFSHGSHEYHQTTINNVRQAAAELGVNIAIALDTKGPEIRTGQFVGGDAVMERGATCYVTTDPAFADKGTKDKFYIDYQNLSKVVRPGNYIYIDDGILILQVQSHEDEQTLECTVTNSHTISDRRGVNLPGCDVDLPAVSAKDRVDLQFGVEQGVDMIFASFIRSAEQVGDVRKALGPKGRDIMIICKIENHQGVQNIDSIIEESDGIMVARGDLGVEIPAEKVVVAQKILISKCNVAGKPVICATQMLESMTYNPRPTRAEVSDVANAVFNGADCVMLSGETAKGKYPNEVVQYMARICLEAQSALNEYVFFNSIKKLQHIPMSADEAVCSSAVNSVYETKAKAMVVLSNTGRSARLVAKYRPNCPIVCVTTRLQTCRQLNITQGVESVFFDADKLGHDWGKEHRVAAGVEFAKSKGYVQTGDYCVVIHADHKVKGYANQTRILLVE
UniProt P11712, sequence (P11712 whole entry, looked up): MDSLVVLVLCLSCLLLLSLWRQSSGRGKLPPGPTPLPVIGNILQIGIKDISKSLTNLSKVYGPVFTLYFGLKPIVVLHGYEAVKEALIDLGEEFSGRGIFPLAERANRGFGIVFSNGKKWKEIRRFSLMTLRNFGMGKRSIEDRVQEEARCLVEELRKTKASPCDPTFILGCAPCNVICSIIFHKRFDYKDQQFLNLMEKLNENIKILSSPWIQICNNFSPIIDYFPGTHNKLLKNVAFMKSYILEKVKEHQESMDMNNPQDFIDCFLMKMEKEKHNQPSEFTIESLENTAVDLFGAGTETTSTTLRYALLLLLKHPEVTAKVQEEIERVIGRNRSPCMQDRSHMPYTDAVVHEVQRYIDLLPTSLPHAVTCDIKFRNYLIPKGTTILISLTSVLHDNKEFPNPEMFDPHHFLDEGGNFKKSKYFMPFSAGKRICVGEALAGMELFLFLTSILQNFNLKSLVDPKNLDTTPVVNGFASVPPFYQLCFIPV
UniProt P14618, sequence (P14618 whole entry, looked up): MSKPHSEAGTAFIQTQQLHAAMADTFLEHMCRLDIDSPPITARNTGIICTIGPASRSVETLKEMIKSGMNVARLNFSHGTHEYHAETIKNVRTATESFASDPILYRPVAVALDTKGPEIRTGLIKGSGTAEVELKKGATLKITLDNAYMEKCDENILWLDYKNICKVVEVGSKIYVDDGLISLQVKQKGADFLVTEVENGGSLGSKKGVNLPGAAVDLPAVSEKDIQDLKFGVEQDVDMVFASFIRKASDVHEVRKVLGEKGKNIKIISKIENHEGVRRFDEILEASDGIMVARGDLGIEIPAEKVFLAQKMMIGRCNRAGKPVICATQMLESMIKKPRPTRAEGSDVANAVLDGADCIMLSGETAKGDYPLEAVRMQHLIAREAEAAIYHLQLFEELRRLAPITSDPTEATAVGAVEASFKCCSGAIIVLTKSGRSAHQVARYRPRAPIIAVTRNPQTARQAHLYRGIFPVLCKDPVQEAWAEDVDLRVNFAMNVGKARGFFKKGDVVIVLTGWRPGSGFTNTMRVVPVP
UniProt P08684, sequence (P08684 whole entry, looked up): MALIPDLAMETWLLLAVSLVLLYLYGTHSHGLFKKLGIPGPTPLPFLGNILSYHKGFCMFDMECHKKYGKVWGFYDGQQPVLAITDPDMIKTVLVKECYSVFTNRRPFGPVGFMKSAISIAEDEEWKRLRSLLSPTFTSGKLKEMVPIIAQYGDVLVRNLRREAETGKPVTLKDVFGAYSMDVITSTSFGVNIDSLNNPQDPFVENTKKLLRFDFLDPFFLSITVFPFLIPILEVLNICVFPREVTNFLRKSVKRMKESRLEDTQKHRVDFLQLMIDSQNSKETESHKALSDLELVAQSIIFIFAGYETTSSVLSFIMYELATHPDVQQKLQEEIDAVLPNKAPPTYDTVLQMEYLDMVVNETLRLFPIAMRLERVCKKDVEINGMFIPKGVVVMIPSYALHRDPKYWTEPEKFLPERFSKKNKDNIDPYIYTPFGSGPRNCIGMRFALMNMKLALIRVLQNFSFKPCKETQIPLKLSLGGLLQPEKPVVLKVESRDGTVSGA
UniProt P63096, sequence (P63096 whole entry, looked up): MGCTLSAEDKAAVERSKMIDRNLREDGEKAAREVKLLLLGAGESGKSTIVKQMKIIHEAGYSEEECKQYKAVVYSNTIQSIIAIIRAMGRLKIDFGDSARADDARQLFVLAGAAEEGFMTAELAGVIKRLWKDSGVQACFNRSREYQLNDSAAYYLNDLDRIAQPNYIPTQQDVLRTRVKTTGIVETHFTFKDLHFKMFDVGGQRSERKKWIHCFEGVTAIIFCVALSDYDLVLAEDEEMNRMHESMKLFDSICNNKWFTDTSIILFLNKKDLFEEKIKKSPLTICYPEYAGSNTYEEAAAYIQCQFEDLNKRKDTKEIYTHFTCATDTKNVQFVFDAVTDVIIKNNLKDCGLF

In the case of `Cc1cc(-c2cc(-c3ccc(Cl)cc3)nc(N)c2C#N)co1`, the activity change, negative = inhibition [1] was inconclusive: 54.8% [activator], the activity, negative = inhibition [2] was inconclusive: 30.8% [activator] [at 17.2 µM] and the Potency [3] was active: 7.94 µM.

With `O=c1c(-c2ccc(Cl)cc2)nc2cnc(N3CCOCC3)nc2n1-c1ccccc1` the activity change, negative = inhibition [1] was inconclusive: 105% [activator] [at 7.69 µM], the activity, negative = inhibition [2] was inconclusive: 236% [activator] and the Potency [4] was “inactive”. For the same compound, the Potency [3] was inconclusive: 2.51 µM [fluorescent, side channel, single point].

With `CCOC(=O)C1=C(C(C)=O)C(c2cccnc2)C(C#N)=C(N)O1` (stereo not drawn) the activity change, negative = inhibition [1] was inactive: 29.3% and the Potency [5] was inactive: > 20.6 µM.

With `N#CCCn1c(=O)c(-c2cccs2)nc2cnc(Nc3ccccc3)nc21` the activity change, negative = inhibition [1] was inconclusive: -37.8% [inhibitor] [at 7.69 µM], the activity, negative = inhibition [2] was inactive: -25% and the Potency [6] was inconclusive: 5.01 µM [inhibitor, full curve].

For `Oc1cc(O)cc(/C=C\c2ccc(O)c(O)c2)c1`, the activity change, negative = inhibition [1] was inconclusive: -64.8% [inhibitor] [at 38 µM], the activity, negative = inhibition [2] was inconclusive: -30.7% [inhibitor] [at 38 µM] and the Potency [7] was “inactive”. The Potency [8] was inconclusive: 31.6 µM [inhibitor, single point], the Potency [3] was inconclusive: 10 µM [inhibitor, partial curve] and the Potency [9] was inconclusive: 2.51 µM [activator, single point]. The Potency [10] was inconclusive: 0.126 µM [inhibitor, full curve, poor fit], the Potency [11] was inconclusive: 15.8 µM [inhibitor, partial curve, poor fit] and the Potency [12] was active: 1.26 µM. The Potency [13] was active: 2.51 µM.

In the case of `CCNc1ncc2nc(-c3cc(F)cc(F)c3)c(=O)n(-c3ccc(OC)cc3)c2n1`, the activity change, negative = inhibition [1] was inconclusive: 33.8% [activator] [at 7.69 µM], the activity, negative = inhibition [2] was inconclusive: 59% [activator] and the Potency [14] was inconclusive: 0.158 µM [inhibitor, full curve]. The Potency [3] was active: 0.398 µM.

In the case of `Nc1nc(-c2ccccc2)c(CC(=O)O)s1`, the activity change, negative = inhibition [1] was inactive: 0.597% [at 7.69 µM] and the Potency [5] was inactive: > 46 µM.

In the case of `O=C(COc1ccc(-c2nnc(N3CCCCC3)c3ccccc23)cc1)N1CCCCC1`, the activity change, negative = inhibition [1] was inconclusive: -59.2% [inhibitor], the activity, negative = inhibition [2] was inconclusive: -31.2% [inhibitor] [at 17.2 µM] and the Potency [3] was inconclusive: 12.6 µM [activator, single point].

For `CCOC(=O)c1[nH]c2ccc(OC)cc2c1NC(=O)CN1CCN(c2ccccn2)CC1`, the activity change, negative = inhibition [1] was inconclusive: -33.3% [inhibitor], the activity, negative = inhibition [2] was inactive: -2.44% [at 17.2 µM] and the Potency [3] was inconclusive: 5.01 µM [inhibitor, partial curve].

For `CCOC(=O)C1=C(N)n2c(s/c(=C\c3cccnc3)c2=O)=C(C(=O)OC)C1c1cccnc1` (stereo not drawn), the activity change, negative = inhibition [1] was inactive: -8.91%, the activity, negative = inhibition [2] was inconclusive: -30.3% [inhibitor] [at 17.2 µM] and the activation [3] was inconclusive: -6.62%.

In the case of `Cc1ccc(NC(=O)CSC2=C(C#N)C(c3ccc4c(c3)OCO4)CC(=O)N2)cc1C` (stereo not drawn), the activity change, negative = inhibition [1] was inconclusive: -33.9% [inhibitor], the activity, negative = inhibition [2] was inconclusive: -31.4% [inhibitor] [at 17.2 µM] and the activation [3] was inconclusive: -27.2%.

With `CCCCC#Cc1nc(N)c2ncn([C@@H]3O[C@@H](C(=O)NCC)[C@H](O)[C@@H]3O)c2n1` the activity change, negative = inhibition [1] was inconclusive: -40.2% [inhibitor] [at 38 µM], the activity, negative = inhibition [2] was inconclusive: -43% [inhibitor] [at 38 µM] and the Potency [15] was inconclusive: 10 µM [inhibitor, single point]. The Potency [3] was inconclusive: 12.6 µM [inhibitor, partial curve], the activity change, negative = inhibition [16] was inconclusive: -18.1% [phenotype inactive] and the Potency [10] was inconclusive: 0.0355 µM [inhibitor, full curve, poor fit].

For `CCNc1ncc2nc(-c3ccccc3)c(=O)n(Cc3ccc(F)cc3)c2n1`, the activity change, negative = inhibition [1] was inconclusive: 54.9% [activator] [at 7.69 µM], the activity, negative = inhibition [2] was active: 82.9% [activator] and the Potency [7] was inconclusive: 1 µM [activator, full curve, poor fit]. For the same compound, the Potency [3] was inconclusive: 3.16 µM [fluorescent, side channel, partial curve].

With `ClC(=Nc1cccc2ccccc12)N(c1ccccc1)c1ccccc1` the activity change, negative = inhibition [1] was inconclusive: 41.5% [activator] [at 7.69 µM], the activity, negative = inhibition [2] was inconclusive: 3.35% [activator] and the Potency [14] was inconclusive: 2.51 µM [inhibitor, partial curve].
